Here are results for 43 compounds from article PMC4336329 (PLoS ONE, 2015).

In all, about 310,000 compounds went through this assay and about 14,000 (4.5%) showed an effect of 50% or more. The effect is printed as a negative number. Some of the results follow.
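Also: peak tail current of the secondary pulse compared with the same well before compound.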

The target of the test is human ether-à-go-go-related gene (hERG) potassium channel (human, UniProt Q12809). The experiment in a line: primary screen, population patch clamp on CHO cells stably expressing hERG.
Sequence of human ether-à-go-go-related gene (hERG) potassium channel (Q12809 whole entry, looked up): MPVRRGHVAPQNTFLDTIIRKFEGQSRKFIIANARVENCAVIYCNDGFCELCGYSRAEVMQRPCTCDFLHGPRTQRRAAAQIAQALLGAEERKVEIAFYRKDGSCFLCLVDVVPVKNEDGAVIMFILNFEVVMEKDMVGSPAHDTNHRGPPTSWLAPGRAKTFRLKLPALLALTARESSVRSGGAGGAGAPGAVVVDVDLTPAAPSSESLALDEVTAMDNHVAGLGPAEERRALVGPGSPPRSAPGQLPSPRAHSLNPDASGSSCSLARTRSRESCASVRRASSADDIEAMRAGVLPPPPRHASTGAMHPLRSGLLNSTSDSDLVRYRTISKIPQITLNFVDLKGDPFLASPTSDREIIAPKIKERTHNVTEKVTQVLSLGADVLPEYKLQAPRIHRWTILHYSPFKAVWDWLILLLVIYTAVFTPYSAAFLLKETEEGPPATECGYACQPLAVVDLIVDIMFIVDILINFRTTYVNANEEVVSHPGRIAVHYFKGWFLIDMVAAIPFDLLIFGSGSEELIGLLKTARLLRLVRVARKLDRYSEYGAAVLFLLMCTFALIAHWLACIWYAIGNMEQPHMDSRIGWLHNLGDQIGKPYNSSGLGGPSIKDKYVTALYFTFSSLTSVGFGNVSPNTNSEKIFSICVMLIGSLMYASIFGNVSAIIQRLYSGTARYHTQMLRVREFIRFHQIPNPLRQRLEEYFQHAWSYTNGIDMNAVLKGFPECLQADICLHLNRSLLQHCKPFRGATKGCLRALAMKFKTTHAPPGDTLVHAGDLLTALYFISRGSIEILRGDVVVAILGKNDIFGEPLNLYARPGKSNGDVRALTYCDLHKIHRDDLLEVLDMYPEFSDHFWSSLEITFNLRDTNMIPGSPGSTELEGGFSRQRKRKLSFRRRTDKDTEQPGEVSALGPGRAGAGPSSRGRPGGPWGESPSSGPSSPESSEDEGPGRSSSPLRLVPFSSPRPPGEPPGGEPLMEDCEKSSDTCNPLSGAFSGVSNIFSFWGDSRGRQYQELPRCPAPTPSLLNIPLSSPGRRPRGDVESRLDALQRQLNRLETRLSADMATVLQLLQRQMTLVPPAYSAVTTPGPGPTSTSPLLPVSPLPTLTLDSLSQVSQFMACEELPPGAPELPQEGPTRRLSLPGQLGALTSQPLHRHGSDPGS
`CC(C)CCc1noc(CN(C)CC2CCN(Cc3ccccc3)CC2)n1`: the “hERG current change (%, negative = inhibition) at 10uM” value is -47.1%.

For the compound `COC(=O)CCn1nnc(-c2cccs2)n1`, the “hERG current change (%, negative = inhibition) at 10uM” value was -6.21%.

Turning to `NC(=O)[C@@H]1CCCN1Cc1nc(-c2cccs2)no1`, the “hERG current change (%, negative = inhibition) at 10uM” value is recorded as -0.852%.

Consider `Nc1ccc(SCCN2C(=O)c3ccccc3C2=O)cc1`, for which the “hERG current change (%, negative = inhibition) at 10uM” value is reported as -1.22%.

Turning to `COc1ccc(Cn2nnnc2CN2CCC(c3nc4ccccc4s3)CC2)cc1`, the “hERG current change (%, negative = inhibition) at 10uM” value was -30.1%.

On to `CN1/C(=C\C(=S)NC(=O)c2ccc([N+](=O)[O-])cc2)C(C)(C)c2ccccc21`, for which the “hERG current change (%, negative = inhibition) at 10uM” value was found to be 24.9%.

With `COC(=O)[C@@]1(Cc2ccc(F)cc2)[C@H]2c3cc(C(=O)N4CCCC4)n(CCCNc4ncc(C(F)(F)F)cc4Cl)c3C[C@H]2CN1C(=O)c1ccccc1`, the “hERG current change (%, negative = inhibition) at 10uM” value is recorded as 0.874%.

For the compound `S=c1[nH]c2ccc(Cc3ccc4[nH]c(=S)[nH]c4c3)cc2[nH]1`, the “hERG current change (%, negative = inhibition) at 10uM” value worked out at 21.5%.

Consider `FC(F)(F)c1cccc(CN2CCSCC2)c1`, for which the “hERG current change (%, negative = inhibition) at 10uM” value came out at 11.9%.

Turning to `CC/C(=N/NC(=O)c1ccccc1O)c1c(C)[nH]n(-c2ccccc2)c1=O`, the “hERG current change (%, negative = inhibition) at 10uM” value is recorded as 6.17%.

Turning to `COc1ccc(NC(=O)COc2cc(C)cc(C)c2)cc1S(=O)(=O)N1CCCCC1`, the “hERG current change (%, negative = inhibition) at 10uM” value is on record as -1.32%.

For the compound `Cc1nn(-c2cc(Cl)ccc2N)c(=O)c2ccccc12`, the “hERG current change (%, negative = inhibition) at 10uM” value is -31.5%.

In the case of `CCc1cc(=O)oc2cc(C)cc(OCC(=O)NCc3ccccn3)c12`, the “hERG current change (%, negative = inhibition) at 10uM” value is -40%.

As for `CN(C(=O)c1cccc(C#CC(C)(C)O)c1)C1CCCN(Cc2ccccc2F)C1` (stereo not shown), the “hERG current change (%, negative = inhibition) at 10uM” value is reported as 6.94%.

Turning to `C=CCn1c(SCC(=O)Nc2ccc3c(c2)OCO3)nc2ccccc2c1=O`, the “hERG current change (%, negative = inhibition) at 10uM” value was -3.64%.

Consider `CC(=O)NC(C)c1ccc(C(=O)CSc2nnc(C3CC3)n2C2CC2)cc1` (stereo not shown), for which the “hERG current change (%, negative = inhibition) at 10uM” value amounted to 0.712%.

Turning to `Cc1cc(C(=O)N/N=C/c2c(C)nn(-c3ccccc3)c2C)c(C)o1`, the “hERG current change (%, negative = inhibition) at 10uM” value came out at 3.8%.

On to `Cc1nc2c(C(=O)NCc3cccs3)cnn2c(C)c1Cc1ccc(F)cc1`, for which the “hERG current change (%, negative = inhibition) at 10uM” value is given as -13%.

In the case of `CCC(Oc1ccccc1C)C(=O)Nc1ccc(S(=O)(=O)Nc2cc(C)on2)cc1` (stereo not shown), the “hERG current change (%, negative = inhibition) at 10uM” value is listed as 3.34%.

Take `O=C(NC1=NCCS1)c1ccccc1F`: the “hERG current change (%, negative = inhibition) at 10uM” value was found to be 0.721%.

Regarding `CCCCCCS(=O)Cc1ccccc1` (stereo not shown), the “hERG current change (%, negative = inhibition) at 10uM” value is recorded as -5.45%.

On to `CC(C)(C)OC(=O)CNC(=O)c1[nH]cnc1C(=O)Nc1ccc(CNC(=O)OC(C)(C)C)cc1`, for which the “hERG current change (%, negative = inhibition) at 10uM” value is recorded as -0.221%.

Consider `O=C(O)CC(Cc1ccc(Br)cc1)C(=O)Nc1ccccc1` (stereo not shown), for which the “hERG current change (%, negative = inhibition) at 10uM” value is on record as 0.801%.

On to `CCc1ccc(-c2csc3ncn(CC(=O)N4CCOCC4)c(=O)c23)cc1`, for which the “hERG current change (%, negative = inhibition) at 10uM” value was -14.3%.

For `CS/C(N)=N/N=C/c1cc(C)ccc1O`, the “hERG current change (%, negative = inhibition) at 10uM” value was 4.28%.

As to `Cc1ccc2c(C)nc(Nc3ncc4c(n3)CCCC4=O)nc2c1`, the “hERG current change (%, negative = inhibition) at 10uM” value was -12.4%.

In the case of `COc1cccc(C2Nc3ccc4ccccc4c3C3=C2C(=O)CCC3)c1O` (stereo not shown), the “hERG current change (%, negative = inhibition) at 10uM” value is 23.5%.

`CCN(CC(=O)Nc1ccc(NC(C)=O)cc1)C(=O)CSC(c1ccccc1)c1ccccc1`: the “hERG current change (%, negative = inhibition) at 10uM” value is -11.2%.

With `CCS(=O)(=O)N1Cc2ccccc2CC1C(=O)Nc1nnc(SCc2ccc(C#N)cc2)s1` (stereo not shown), the “hERG current change (%, negative = inhibition) at 10uM” value is listed as -8.26%.

Take `C/C(=N\Nc1nc(C)cc(-c2ccccc2)n1)c1ccc(F)cc1`: the “hERG current change (%, negative = inhibition) at 10uM” value was 16.6%.

In the case of `CC1CCCCN1S(=O)(=O)c1ccc(S(=O)(=O)N2CCN(c3ccccc3)CC2)cc1` (stereo not shown), the “hERG current change (%, negative = inhibition) at 10uM” value is recorded as -5.68%.

Regarding `CC(=C/c1ccc(C(C)C)cc1)/C=N/NC(=O)Cn1nc(C)cc1C`, the “hERG current change (%, negative = inhibition) at 10uM” value is on record as 11.1%.

As to `CC(C)Cc1ccc(S(=O)(=O)NCC2CCCO2)cc1` (stereo not shown), the “hERG current change (%, negative = inhibition) at 10uM” value stood at 5.89%.

With `CCCC(C(=O)Nc1ccc(C)c(S(=O)(=O)N2CCOCC2)c1)c1ccccc1` (stereo not shown), the “hERG current change (%, negative = inhibition) at 10uM” value is given as -47.7%.

For `CC(C)CCNC(=O)C1CC2Cn3c(nc4cc(Cl)c(Cl)cc43)C2N1C` (stereo not shown), the “hERG current change (%, negative = inhibition) at 10uM” value was -56%.

Turning to `CCOC(=O)c1c(-c2ccco2)csc1NC(=O)CSc1nnc(N)s1`, the “hERG current change (%, negative = inhibition) at 10uM” value was 0.206%.

Regarding `CC(Sc1nnc(C(F)(F)F)n1C)C(=O)Nc1ccc(S(N)(=O)=O)cc1` (stereo not shown), the “hERG current change (%, negative = inhibition) at 10uM” value was -20.9%.

For the compound `Cn1ccc(C(=O)Nc2ccc3c(c2)OCCO3)n1`, the “hERG current change (%, negative = inhibition) at 10uM” value is given as 21.9%.

`O=c1[nH]c2ccccc2c2cn(-c3ccccc3)nc12`: the “hERG current change (%, negative = inhibition) at 10uM” value worked out at 21.1%.

As for `COc1ccc(C2CC(c3c(Cl)cccc3Cl)n3nc(N)nc3N2)cc1` (stereo not shown), the “hERG current change (%, negative = inhibition) at 10uM” value was 0.0331%.

Turning to `COc1ccc(-c2cc(N3C(=O)Nc4ccccc4N3O)n[nH]2)c(OC)c1`, the “hERG current change (%, negative = inhibition) at 10uM” value stood at 7.27%.

Turning to `O=C(NCc1ccccc1)c1onc(CSc2ccc(F)cc2)c1C(=O)NCCCN1CCOCC1`, the “hERG current change (%, negative = inhibition) at 10uM” value is on record as -73.9%.

As to `COc1ccc(-n2ccc(-c3nn(-c4cccc(C(F)(F)F)c4)ccc3=O)n2)cc1`, the “hERG current change (%, negative = inhibition) at 10uM” value is recorded as -45.7%.
